According to a compilation of properties of binary mixtures (doi:10.1021/acs.jpcc.9b06000):
Some of these densities may be calculated back from excess volumes.

Experiment: xn = mol fraction of the nth substance listed
Conditions: 101 kPa

Work on FC1CC(F)(F)C(F)(F)C1(F)F (stereo not drawn) + CCCC[N+]1(C)CCCC1.FC(F)(F)C(F)(F)[P-](F)(F)(F)(C(F)(F)C(F)(F)F)C(F)(F)C(F)(F)F yielded a mass density (298.1 K, x2 = 0.0173) of 1579.6 kg/m3, a mass density (298.1 K, x2 = 0.0358) of 1582.5 kg/m3 and a mass density (298.1 K, x2 = 0.077) of 1587.5 kg/m3. It also gave a mass density (298.1 K, x2 = 0.1821) of 1591.4 kg/m3, a mass density (298.1 K, x2 = 0.2503) of 1591.2 kg/m3 and a mass density (298.1 K, x2 = 0.4379) of 1588.4 kg/m3. It also gave a mass density (298.1 K, x2 = 0.6542) of 1585.7 kg/m3, a mass density (298.1 K, x2 = 0.8395) of 1583.7 kg/m3 and a mass density (303 K, x2 = 0) of 1562.9 kg/m3. The mass density (303 K, x2 = 0.0173) was 1569.3 kg/m3, the mass density (303 K, x2 = 0.077) was 1578.4 kg/m3 and the mass density (303 K, x2 = 0.3337) was 1583.4 kg/m3. The mass density (303 K, x2 = 0.4379) was 1582.1 kg/m3, the mass density (303 K, x2 = 0.8395) was 1578.2 kg/m3 and the mass density (308.1 K, x2 = 0) was 1552 kg/m3. For the same compound, the mass density (308.1 K, x2 = 0.0173) was 1559 kg/m3, the mass density (308.1 K, x2 = 0.0358) was 1562.7 kg/m3 and the mass density (308.1 K, x2 = 0.077) was 1569.3 kg/m3. For the same compound, the mass density (308.1 K, x2 = 0.1252) was 1573.2 kg/m3, the mass density (308.1 K, x2 = 0.3337) was 1576.6 kg/m3 and the mass density (308.1 K, x2 = 0.4379) was 1575.7 kg/m3. For the same compound, the mass density (308.1 K, x2 = 0.8395) was 1572.7 kg/m3, the mass density (313 K, x2 = 0) was 1541 kg/m3 and the mass density (313 K, x2 = 0.0173) was 1548.5 kg/m3. The mass density (313 K, x2 = 0.0358) was 1552.7 kg/m3, the mass density (313 K, x2 = 0.077) was 1560.1 kg/m3 and the mass density (313 K, x2 = 0.1252) was 1564.7 kg/m3. It also gave a mass density (313 K, x2 = 0.1821) of 1568 kg/m3, a mass density (313 K, x2 = 0.2503) of 1569.9 kg/m3 and a mass density (313 K, x2 = 0.3337) of 1569.8 kg/m3. For the same compound, the mass density (313 K, x2 = 0.4379) was 1569.4 kg/m3, the mass density (313 K, x2 = 0.6542) was 1568.4 kg/m3 and the mass density (313 K, x2 = 0.8395) was 1567.3 kg/m3. The mass density (318.1 K, x2 = 0) was 1529.9 kg/m3, the mass density (318.1 K, x2 = 0.0173) was 1538 kg/m3 and the mass density (318.1 K, x2 = 0.0358) was 1542.6 kg/m3. For the same compound, the mass density (318.1 K, x2 = 0.077) was 1550.9 kg/m3, the mass density (318.1 K, x2 = 0.1821) was 1560.1 kg/m3 and the mass density (318.1 K, x2 = 0.2503) was 1562.5 kg/m3. The mass density (318.1 K, x2 = 0.3337) was 1563.1 kg/m3, the mass density (318.1 K, x2 = 0.4379) was 1563.1 kg/m3 and the mass density (318.1 K, x2 = 0.6542) was 1562.6 kg/m3. It also gave a mass density (318.1 K, x2 = 0.8395) of 1561.9 kg/m3, a mass density (323 K, x2 = 0) of 1518.7 kg/m3 and a mass density (323 K, x2 = 0.0358) of 1532.4 kg/m3. It also gave a mass density (323 K, x2 = 0.077) of 1541.7 kg/m3, a mass density (323 K, x2 = 0.1252) of 1547.7 kg/m3 and a mass density (323 K, x2 = 0.1821) of 1552.2 kg/m3. It also gave a mass density (323 K, x2 = 0.2503) of 1555.3 kg/m3, a mass density (323 K, x2 = 0.3337) of 1556.3 kg/m3 and a mass density (323 K, x2 = 0.4379) of 1556.7 kg/m3. For the same compound, the mass density (323 K, x2 = 0.6542) was 1556.8 kg/m3.
CCCC[N+]1(C)CCCC1.FC(F)(F)C(F)(F)[P-](F)(F)(F)(C(F)(F)C(F)(F)F)C(F)(F)C(F)(F)F + FC1CC(F)(F)C(F)(F)C1(F)F gave a mass density (298.1 K, x1 = 1) of 1587.7 kg/m3, a mass density (303 K, x1 = 1) of 1582.4 kg/m3 and a mass density (308.1 K, x1 = 1) of 1577.1 kg/m3. It also gave a mass density (313 K, x1 = 1) of 1571.9 kg/m3, a mass density (318.1 K, x1 = 1) of 1566.6 kg/m3 and a mass density (323 K, x1 = 1) of 1561.4 kg/m3.
